According to the CheMixHub viscosity set:
Several values for one entry are separate records, joined by “and”; a condition that tells them apart may be missing. Equal values may be shown once. The source gives many values for each of these; only a part stands here.

Experiment: xn = mol fraction of the nth substance listed

CCCO + O
Settings | viscosity
293.15 K, 101 kPa, x1 = 0.9 | 2.3 mPa·s
293.15 K, 101.3 kPa, x1 = 0.0908 | 2.48 mPa·s
293.15 K, 101.3 kPa, x1 = 0.2306 | 3.17 mPa·s
293.15 K, 101.3 kPa, x1 = 0.4735 | 2.94 mPa·s
293.15 K, 101.3 kPa, x1 = 0.7296 | 2.52 mPa·s
293.15 K, 101.33 kPa, x1 = 0.0322 | 1.597 mPa·s
293.15 K, 101.33 kPa, x1 = 0.114 | 2.748 mPa·s
293.15 K, 101.33 kPa, x1 = 0.231 | 3.278 mPa·s
293.15 K, 101.33 kPa, x1 = 0.25 | 3.31 mPa·s
293.15 K, 101.33 kPa, x1 = 0.268 | 3.31 mPa·s
293.15 K, 101.33 kPa, x1 = 0.412 | 3.193 mPa·s
297.96 K, 101.33 kPa, x1 = 0.0555 | 1.69 mPa·s
297.96 K, 101.33 kPa, x1 = 0.1383 | 2.275 mPa·s
297.96 K, 101.33 kPa, x1 = 0.1644 | 2.479 mPa·s
297.96 K, 101.33 kPa, x1 = 0.1938 | 2.503 mPa·s
297.96 K, 101.33 kPa, x1 = 0.3109 | 2.681 mPa·s
297.96 K, 101.33 kPa, x1 = 0.5696 | 2.395 mPa·s
297.96 K, 101.33 kPa, x1 = 0.7354 | 2.192 mPa·s
298 K, 101 kPa, x1 = 0.03 | 1.335 mPa·s
298 K, 101 kPa, x1 = 0.1 | 2.227 mPa·s
298 K, 101 kPa, x1 = 0.2 | 2.47 mPa·s
298 K, 101 kPa, x1 = 0.4 | 2.586 mPa·s
298.15 K, 100 kPa, x1 = 0.025 | 1.255 mPa·s
298.15 K, 100 kPa, x1 = 0.0917 | 2.038 mPa·s
298.15 K, 100 kPa, x1 = 0.191 | 2.56 mPa·s
298.15 K, 100 kPa, x1 = 0.2014 | 2.591 mPa·s
298.15 K, 100 kPa, x1 = 0.5 | 2.509 mPa·s
298.15 K, 100 kPa, x1 = 0.545 | 2.448 mPa·s
298.15 K, 100 kPa, x1 = 0.629 | 2.273 mPa·s
298.15 K, 100 kPa, x1 = 0.73 | 2.152 mPa·s
298.15 K, 100 kPa, x1 = 0.75 | 2.157 mPa·s
298.15 K, 101 kPa, x1 = 0.0051 | 0.957 mPa·s
298.15 K, 101 kPa, x1 = 0.0116 | 1.03 mPa·s
298.15 K, 101 kPa, x1 = 0.0149 | 1.079 mPa·s
298.15 K, 101 kPa, x1 = 0.0214 | 1.173 mPa·s
298.15 K, 101 kPa, x1 = 0.02492 | 1.239 mPa·s
298.15 K, 101 kPa, x1 = 0.0386 | 1.435 mPa·s
298.15 K, 101 kPa, x1 = 0.0523 | 1.734 mPa·s
298.15 K, 101 kPa, x1 = 0.0997 | 2.095 mPa·s
298.15 K, 101 kPa, x1 = 0.1342 | 2.303 mPa·s
298.15 K, 101 kPa, x1 = 0.1986 | 2.562 mPa·s
298.15 K, 101 kPa, x1 = 0.3006 | 2.705 mPa·s
298.15 K, 101 kPa, x1 = 0.3811 | 2.627 mPa·s
298.15 K, 101 kPa, x1 = 0.4003 | 2.619 mPa·s
298.15 K, 101 kPa, x1 = 0.4782 | 2.498 mPa·s
298.15 K, 101 kPa, x1 = 0.5394 | 2.407 mPa·s
298.15 K, 101 kPa, x1 = 0.6217 | 2.306 mPa·s
298.15 K, 101 kPa, x1 = 0.6856 | 2.241 mPa·s
298.15 K, 101 kPa, x1 = 0.8994 | 2.036 mPa·s
298.15 K, 101 kPa, x1 = 0.9621 | 1.986 mPa·s
298.15 K, 101.33 kPa, x1 = 0.0273 | 1.289 mPa·s
298.15 K, 101.33 kPa, x1 = 0.0298 | 1.312 mPa·s
298.15 K, 101.33 kPa, x1 = 0.03223 | 1.347 mPa·s
298.15 K, 101.33 kPa, x1 = 0.06972 | 1.836 mPa·s
298.15 K, 101.33 kPa, x1 = 0.08053 | 1.982 mPa·s
298.15 K, 101.33 kPa, x1 = 0.09045 | 2.047 mPa·s
298.15 K, 101.33 kPa, x1 = 0.09346 | 2.11 mPa·s
298.15 K, 101.33 kPa, x1 = 0.1058 | 2.188 mPa·s
298.15 K, 101.33 kPa, x1 = 0.1139 | 2.226 mPa·s
298.15 K, 101.33 kPa, x1 = 0.1398 | 2.456 mPa·s
298.15 K, 101.33 kPa, x1 = 0.1666 | 2.497 mPa·s
298.15 K, 101.33 kPa, x1 = 0.1869 | 2.616 mPa·s
298.15 K, 101.33 kPa, x1 = 0.2306 | 2.65 mPa·s
298.15 K, 101.33 kPa, x1 = 0.2571 | 2.707 mPa·s
298.15 K, 101.33 kPa, x1 = 0.357 | 2.703 mPa·s
298.15 K, 101.33 kPa, x1 = 0.4047 | 2.62 mPa·s
298.15 K, 101.33 kPa, x1 = 0.4116 | 2.592 mPa·s
298.15 K, 101.33 kPa, x1 = 0.5365 | 2.45 mPa·s
298.15 K, 101.33 kPa, x1 = 0.5453 | 2.394 mPa·s
298.15 K, 101.33 kPa, x1 = 0.6095 | 2.364 mPa·s
298.15 K, 101.33 kPa, x1 = 0.6596 | 2.311 mPa·s
298.15 K, 101.33 kPa, x1 = 0.7296 | 2.162 mPa·s
298.15 K, 101.33 kPa, x1 = 0.8507 | 2.043 mPa·s
302.99 K, 101.33 kPa, x1 = 0.0555 | 1.435 mPa·s
302.99 K, 101.33 kPa, x1 = 0.1134 | 1.889 mPa·s
302.99 K, 101.33 kPa, x1 = 0.1383 | 2.009 mPa·s
302.99 K, 101.33 kPa, x1 = 0.1644 | 2.116 mPa·s
302.99 K, 101.33 kPa, x1 = 0.2288 | 2.25 mPa·s
302.99 K, 101.33 kPa, x1 = 0.3109 | 2.286 mPa·s
302.99 K, 101.33 kPa, x1 = 0.4189 | 2.222 mPa·s
302.99 K, 101.33 kPa, x1 = 0.5696 | 2.072 mPa·s
302.99 K, 101.33 kPa, x1 = 0.7354 | 1.924 mPa·s
303.15 K, 101 kPa, x1 = 0.0738 | 1.534 mPa·s
303.15 K, 101 kPa, x1 = 0.1 | 1.791 mPa·s
303.15 K, 101 kPa, x1 = 0.2 | 2.2 mPa·s
303.15 K, 101 kPa, x1 = 0.3 | 2.283 mPa·s
303.15 K, 101 kPa, x1 = 0.3067 | 2.277 mPa·s
303.15 K, 101 kPa, x1 = 0.4143 | 2.213 mPa·s
303.15 K, 101 kPa, x1 = 0.5 | 2.134 mPa·s
303.15 K, 101 kPa, x1 = 0.5764 | 1.969 mPa·s
303.15 K, 101 kPa, x1 = 0.6 | 2.038 mPa·s
303.15 K, 101 kPa, x1 = 0.6817 | 1.951 mPa·s
303.15 K, 101 kPa, x1 = 0.7 | 1.939 mPa·s
303.15 K, 101 kPa, x1 = 0.8 | 1.862 mPa·s
303.15 K, 101 kPa, x1 = 0.9 | 1.783 mPa·s and 1.796 mPa·s
303.15 K, 101.3 kPa, x1 = 0.0908 | 1.73 mPa·s
303.15 K, 101.3 kPa, x1 = 0.2306 | 2.25 mPa·s
303.15 K, 101.3 kPa, x1 = 0.4735 | 2.15 mPa·s
303.15 K, 101.3 kPa, x1 = 0.7296 | 1.92 mPa·s
303.15 K, 101.33 kPa, x1 = 0.0322 | 1.217 mPa·s
303.15 K, 101.33 kPa, x1 = 0.06972 | 1.546 mPa·s
303.15 K, 101.33 kPa, x1 = 0.1139 | 1.868 mPa·s
303.15 K, 101.33 kPa, x1 = 0.114 | 1.939 mPa·s
303.15 K, 101.33 kPa, x1 = 0.1666 | 2.101 mPa·s
303.15 K, 101.33 kPa, x1 = 0.2306 | 2.237 mPa·s
303.15 K, 101.33 kPa, x1 = 0.231 | 2.334 mPa·s
303.15 K, 101.33 kPa, x1 = 0.4116 | 2.216 mPa·s
303.15 K, 101.33 kPa, x1 = 0.412 | 2.329 mPa·s
303.15 K, 101.33 kPa, x1 = 0.5453 | 2.071 mPa·s
303.15 K, 101.33 kPa, x1 = 0.7296 | 1.891 mPa·s
303.15 K, 101.33 kPa, x1 = 0.8507 | 1.805 mPa·s
307.92 K, 101.33 kPa, x1 = 0.0555 | 1.242 mPa·s
307.92 K, 101.33 kPa, x1 = 0.1134 | 1.621 mPa·s
307.92 K, 101.33 kPa, x1 = 0.1383 | 1.728 mPa·s
307.92 K, 101.33 kPa, x1 = 0.1644 | 1.815 mPa·s
307.92 K, 101.33 kPa, x1 = 0.3109 | 1.972 mPa·s
307.92 K, 101.33 kPa, x1 = 0.5696 | 1.807 mPa·s
307.92 K, 101.33 kPa, x1 = 0.7354 | 1.691 mPa·s
308.15 K, 100 kPa, x1 = 0.025 | 0.97 mPa·s
308.15 K, 100 kPa, x1 = 0.0917 | 1.461 mPa·s
308.15 K, 100 kPa, x1 = 0.191 | 1.85 mPa·s
308.15 K, 100 kPa, x1 = 0.545 | 1.78 mPa·s
